# In the supplement of paper PMC8728848:
# The other results are listed elsewhere or left out.
# B1: Pwp4 (Candida glabrata) (protein)
# chain: MGSSHHHHHHSSGLVPRGSHMASVGNPITVSNVCSFPKNWHRTAGFRALTARLGIGIQSDSYKELLNYPGTFQLTTQQSSTTKPNFQISGLVGNIYGLTIVPSYLLVELTGYFVPPVSGEYTFSLEGSDDAAIIFIANPSTFKCGHVEDWPTAYDNDVTVTESIHATRTIYMIEGVAYPIRIAYYNGLSLGKLQASFTDPEGVKRVDWNGYIWRYDSCDTCSYV
# Tests used:
# Test in all cases: glycan array binding signal (z-score within array); higher = stronger binding
# Conditions in all cases: glycan notation: IUPAC condensed, linker removed
# [1] = molecular target: Neu5Ac(a2-3)Gal(b1-4)GlcNAc(b1-6)GalNAc
# Summary of the method: (§1)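 The binding signal is a Z-score computed within each array. Data were drawn from 3228 arrays in the Consortium for Functional Glycomics database, restricted to those with a known protein sequence. Scores were averaged over arrays of the same protein sequence at different concentrations or buffers, and over linkers, and negative values can be taken as non-binding.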
# [2] = molecular target: Neu5Ac(a2-3)Gal(b1-4)GlcNAc(b1-6)[Gal(b1-3)]GalNAc
# Summary of the method: as §1
# [3] = molecular target: Neu5Ac(a2-3)Gal(b1-4)GlcNAc(b1-6)[Neu5Ac(a2-3)Gal(b1-3)]GalNAc
# Summary of the method: as §1
# [4] = molecular target: Neu5Ac(a2-3)Gal(b1-4)GlcNAc6S
# Summary of the method: as §1
# [5] = molecular target: Neu5Ac(a2-3)Gal(b1-4)[Fuc(a1-3)]GlcNAc
# Summary of the method: as §1
# [6] = molecular target: Neu5Ac(a2-3)Gal(b1-4)[Fuc(a1-3)]GlcNAc(b1-2)Man
# Summary of the method: as §1
# [7] = molecular target: Neu5Ac(a2-3)Gal(b1-4)[Fuc(a1-3)]GlcNAc(b1-3)Gal
# Summary of the method: as §1
# [8] = molecular target: Neu5Ac(a2-3)Gal(b1-4)[Fuc(a1-3)]GlcNAc(b1-3)Gal(b1-4)GlcNAc
# Summary of the method: as §1
# [9] = molecular target: Neu5Ac(a2-3)Gal(b1-4)[Fuc(a1-3)]GlcNAc(b1-3)Gal(b1-4)[Fuc(a1-3)]GlcNAc(b1-3)Gal(b1-4)[Fuc(a1-3)]GlcNAc
# Summary of the method: as §1
# [10] = molecular target: Neu5Ac(a2-3)Gal(b1-4)[Fuc(a1-3)]GlcNAc(b1-3)GalNAc
# Summary of the method: as §1
# [11] = molecular target: Neu5Ac(a2-3)Gal(b1-4)[Fuc(a1-3)]GlcNAc(b1-6)[Gal(b1-3)]GalNAc
# Summary of the method: as §1
# [12] = molecular target: Neu5Ac(a2-3)Gal(b1-4)[Fuc(a1-3)]GlcNAc(b1-6)[Neu5Ac(a2-3)Gal(b1-3)]GalNAc
# Summary of the method: as §1
# [13] = molecular target: Neu5Ac(a2-3)Gal(b1-4)[Fuc(a1-3)]GlcNAc6S
# Summary of the method: as §1
# [14] = molecular target: Neu5Ac(a2-3)Gal6S(b1-4)GlcNAc
# Summary of the method: as §1
# [15] = molecular target: Neu5Ac(a2-3)Gal6S(b1-4)[Fuc(a1-3)]GlcNAc
# Summary of the method: as §1
# Neu5Ac(a2-3)GalNAc = molecular target: Neu5Ac(a2-3)GalNAc
# Summary of the method: as §1
# [16] = molecular target: Neu5Ac(a2-3)GalNAc(b1-4)GlcNAc
# Summary of the method: as §1
# [17] = molecular target: Neu5Ac(a2-3)[GalNAc(b1-4)]Gal(b1-4)Glc
# Summary of the method: as §1
# [18] = molecular target: Neu5Ac(a2-3)[GalNAc(b1-4)]Gal(b1-4)GlcNAc
# Summary of the method: as §1
# [19] = molecular target: Neu5Ac(a2-3)[GalNAc(b1-4)]Gal(b1-4)GlcNAc(b1-3)GalNAc
# Summary of the method: as §1
# [20] = molecular target: Neu5Ac(a2-3)[Neu5Ac(a2-6)]GalNAc
# Summary of the method: as §1
# Neu5Ac(a2-6)Gal = molecular target: Neu5Ac(a2-6)Gal
# Summary of the method: as §1
# [21] = molecular target: Neu5Ac(a2-6)Gal(b1-3)GlcNAc(b1-3)[Gal(b1-4)GlcNAc(b1-6)]Gal(b1-4)Glc
# Summary of the method: as §1
# Neu5Ac(a2-6)Gal(b1-4)Glc = molecular target: Neu5Ac(a2-6)Gal(b1-4)Glc
# Summary of the method: as §1
# [22] = molecular target: Neu5Ac(a2-6)Gal(b1-4)GlcNAc
# Summary of the method: as §1
# [23] = molecular target: Neu5Ac(a2-6)Gal(b1-4)GlcNAc(b1-2)Man
# Summary of the method: as §1
# [24] = molecular target: Neu5Ac(a2-6)Gal(b1-4)GlcNAc(b1-2)Man(a1-3)Man(b1-4)GlcNAc(b1-4)GlcNAc
# Summary of the method: as §1
# [25] = molecular target: Neu5Ac(a2-6)Gal(b1-4)GlcNAc(b1-2)Man(a1-3)[Gal(b1-4)GlcNAc(b1-2)Man(a1-6)]Man(b1-4)GlcNAc(b1-4)GlcNAc
# Summary of the method: as §1
# [26] = molecular target: Neu5Ac(a2-6)Gal(b1-4)GlcNAc(b1-2)Man(a1-3)[GlcNAc(b1-4)][Neu5Ac(a2-6)Gal(b1-4)GlcNAc(b1-2)Man(a1-6)]Man(b1-4)GlcNAc(b1-4)GlcNAc
# Summary of the method: as §1
# [27] = molecular target: Neu5Ac(a2-6)Gal(b1-4)GlcNAc(b1-2)Man(a1-3)[Man(a1-6)]Man(b1-4)GlcNAc(b1-4)GlcNAc
# Summary of the method: as §1
binder,measurement,setting,value
B1,glycan array binding signal (z-score),[1],0.163
same,glycan array binding signal (z-score),[2],0.013
same,glycan array binding signal (z-score),[3],-0.278
same,glycan array binding signal (z-score),[4],-0.629
same,glycan array binding signal (z-score),[5],0.138
same,glycan array binding signal (z-score),[6],0.163
same,glycan array binding signal (z-score),[7],0.061
same,glycan array binding signal (z-score),[8],-0.168
same,glycan array binding signal (z-score),[9],-0.404
same,glycan array binding signal (z-score),[10],-0.172
same,glycan array binding signal (z-score),[11],-0.316
same,glycan array binding signal (z-score),[12],0.089
same,glycan array binding signal (z-score),[13],-0.478
same,glycan array binding signal (z-score),[14],-0.614
same,glycan array binding signal (z-score),[15],-0.421
same,glycan array binding signal (z-score),Neu5Ac(a2-3)GalNAc,-0.545
same,glycan array binding signal (z-score),[16],0.429
same,glycan array binding signal (z-score),[17],-0.025
same,glycan array binding signal (z-score),[18],-0.525
same,glycan array binding signal (z-score),[19],-0.286
same,glycan array binding signal (z-score),[20],1
same,glycan array binding signal (z-score),Neu5Ac(a2-6)Gal,0.575
same,glycan array binding signal (z-score),[21],-0.424
same,glycan array binding signal (z-score),Neu5Ac(a2-6)Gal(b1-4)Glc,-0.616
same,glycan array binding signal (z-score),[22],0.065
same,glycan array binding signal (z-score),[23],-0.742
same,glycan array binding signal (z-score),[24],-0.419
same,glycan array binding signal (z-score),[25],1.01
same,glycan array binding signal (z-score),[26],0.257
same,glycan array binding signal (z-score),[27],0.089
